# ± gives the standard deviation of the averaged measurements. In all, about 33,000 sequences were measured (“E-score (dimensionless, -0.5 to 0.5)”: median about -0.049, highest 2% from about 0.37 on). This is one part of the list.
# Tested on: T1, PmTbr T-box DNA-binding domain (GST fusion)
# T1 sequence: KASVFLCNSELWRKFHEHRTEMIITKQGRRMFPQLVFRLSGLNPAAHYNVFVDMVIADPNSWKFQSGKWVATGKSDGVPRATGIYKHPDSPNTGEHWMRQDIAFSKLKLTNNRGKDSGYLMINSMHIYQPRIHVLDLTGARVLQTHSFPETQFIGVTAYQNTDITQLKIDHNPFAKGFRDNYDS
# Assay: PBM E-score of 8-mer (E-score (dimensionless, -0.5 to 0.5)); Tbr is Tbrain of the sea star Patiria miniata (Pm) or the sea urchin Strongylocentrotus purpuratus (Sp); higher = stronger binding preference; most listed sequences are background and not binding sites
# Details: the construct has about 5 more residues each side
# Method in brief: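 Each ungapped 8-mer received an enrichment E-score from the Universal PBM Analysis Suite, averaged over duplicate arrays. The proteins were Tbr T-box DNA-binding domains, covering the whole T-box plus about five flanking residues, fused to GST and expressed in BL21 E. coli at 20 °C before glutathione affinity purification. Universal Agilent oligonucleotide arrays were made double-stranded by primer extension and incubated with 200 nM protein in PBS (pH 7.5). The arrays were then scanned and quantified, and every 8-mer was scored from probe intensities.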
row,Sequence,PBM E-score of 8-mer
1,GCATCGTA,-0.122 ± 0.023
2,AGTTCGGG,-0.0412 ± 0.12
3,GCAGTCTA,-0.213 ± 0.033
4,GCAGCTAA,0.0268 ± 0.036
5,GAAATTAC,0.0834 ± 0.14
6,CGCAGTAA,0.0339 ± 0.034
7,ATCTGCAG,-0.0601 ± 0.031
8,CGCGACCG,0.233 ± 0.029
9,GAGAGCGC,-0.0109 ± 0.032
10,TCGACTCA,-0.145 ± 0.029
11,CAAGCCGG,-0.327 ± 0.038
12,ACGCCTAT,0.319 ± 0.0038
13,AAGCTTTC,-0.022 ± 0.014
14,ATTTCCTA,-0.0913 ± 0.096
15,TCAGCAAA,-0.0833 ± 0.054
16,ATCCGTCA,-0.0175 ± 0.026
17,AAGTTTCT,0.101 ± 0.091
18,ACGGGCGG,-0.0753 ± 0.057
19,AGCATCGG,-0.188 ± 0.02
20,GGTTTCCA,-0.081 ± 0.028
21,CGTTAGCA,0.394 ± 0.012
22,GACGAAAA,0.0978 ± 0.12
23,AGCCGGCT,-0.358 ± 0.021
24,AGGATCTG,-0.273 ± 0.057
25,CTTAGCCC,-0.172 ± 0.033

row,Sequence,PBM E-score of 8-mer
1,AGTTAGTA,-0.0652 ± 0.01
2,ACTGCTAC,-0.0921 ± 0.023
3,GTTGTTAA,0.338 ± 0.029
4,GCTATAAA,0.0784 ± 0.026
5,CTTAGCAC,0.4 ± 0.0047
6,CCTGAATC,-0.0399 ± 0.0061
7,TATGGAGA,-0.209 ± 0.021
8,CGTTCGTA,-0.101 ± 0.035
9,ACGTACCG,-0.111 ± 0.041
10,GAATGATC,-0.0267 ± 0.00081
11,AGGTACCT,-0.00768 ± 0.00088
12,CGTAAGAG,-0.222 ± 0.041
13,GCTAAGAA,0.107 ± 0.12
14,ACCATACA,-0.0577 ± 0.022
15,AACCTACG,-0.21 ± 0.0028
16,CAATATGG,-0.031 ± 0.021
17,CTCGACAA,0.131 ± 0.017
18,GTTTTGGA,-0.258 ± 0.05
19,ACCCGTGG,0.002 ± 0.0038
20,ATCGATAA,0.0914 ± 0.086
21,ATCCTTAC,0.0606 ± 0.034
22,ATAGATGA,-0.147 ± 0.059
23,CAGAGCCA,0.0029 ± 0.0065
24,CGGGCAAA,-0.171 ± 0.0053
25,AGGCTTTA,-0.236 ± 0.052

row,Sequence,PBM E-score of 8-mer
1,ACACGGAA,0.0215 ± 0.021
2,GTGAGCCA,0.0202 ± 0.042
3,ATAAATAA,-0.259 ± 0.017
4,CAATGGAA,-0.144 ± 0.028
5,ATAAGTAA,0.082 ± 0.054
6,CCTCTTCA,0.0188 ± 0.05
7,CCGTGAAA,0.222 ± 0.019
8,CTTTACTA,-0.0858 ± 0.059
9,CGGGATCC,-0.132 ± 0.037
10,ACGGTTTG,0.0657 ± 0.037
11,AACTTGCA,0.186 ± 0.014
12,GCCCCTGA,-0.0764 ± 0.072
13,AGCGTGGG,-0.1 ± 0.085
14,AATTAGCC,-0.0249 ± 0.03
15,AGATTATG,-0.28 ± 0.024
16,ACATCATA,0.056 ± 0.069
17,CCATCCCC,-0.261 ± 0.055
18,CACATGCG,0.16 ± 0.0062
19,CTCTTAGA,-0.246 ± 0.025
20,TCGTCACA,0.3455 ± 0.0028
21,AGAAAAAC,-0.149 ± 0.069
22,ATTACGAG,-0.0382 ± 0.07
23,CCGGTCCC,-0.324 ± 0.04
24,GTAACGAC,0.105 ± 0.083
25,TACCAAAA,-0.127 ± 0.086

row,Sequence,PBM E-score of 8-mer
1,CATTCTTC,-0.0142 ± 0.0099
2,AGATACGA,-0.172 ± 0.0095
3,ATGGGCTG,-0.0431 ± 0.049
4,CACTAGCA,0.197 ± 0.024
5,TCGGCCAA,-0.0197 ± 0.067
6,CGAATGGC,0.0367 ± 0.0062
7,CAGGGACG,-0.0768 ± 0.0047
8,TAGCTCCA,-0.3151 ± 0.0019
9,AGTGGCGG,0.215 ± 0.061
10,CGAACCGA,0.116 ± 0.058
11,TCGTGCCA,0.198 ± 0.011
12,CAGCCCAA,-0.205 ± 0.05
13,GGCCACGA,-0.203 ± 0.0067
14,CCCACTGC,-0.122 ± 0.12
15,CCACTTTC,0.104 ± 0.06
16,AATCACCA,0.0367 ± 0.012
17,ACAGGCCC,-0.165 ± 0.08
18,AACTAAAT,-0.108 ± 0.018
19,GTGGAGGA,0.00318 ± 0.03
20,CTGACTGC,-0.0183 ± 0.029
21,AGCTGGTA,-0.0785 ± 0.028
22,CTCAGTCA,-0.0137 ± 0.0022
23,GGAAATTA,-0.19 ± 0.13
24,GACACGCC,0.234 ± 0.058
25,TACTCAGA,0.055 ± 0.043

row,Sequence,PBM E-score of 8-mer
1,ATTAGAGC,-0.204 ± 0.039
2,ACATCGAT,-0.114 ± 0.087
3,ACTAAGGA,-0.235 ± 0.096
4,CGGATAGC,-0.00127 ± 0.028
5,TCGCCCGA,-0.00096 ± 0.011
6,GATTTGAA,-0.195 ± 0.015
7,CCGTCAAA,0.197 ± 0.013
8,GAGAGCCC,-0.0477 ± 0.083
9,ACAGTCTG,-0.103 ± 0.039
10,GAGCCAGA,-0.143 ± 0.016
11,AACTCGCT,0.0278 ± 0.052
12,TACGATAA,0.0904 ± 0.12
13,CAAATTTC,-0.0301 ± 0.043
14,AGCTCGCA,0.283 ± 0.026
15,GACCACTC,-0.0354 ± 0.022
16,AGCATCAT,-0.213 ± 0.013
17,ACATACCG,0.0185 ± 0.022
18,CTCGCGAA,0.368 ± 0.0047
19,AAAGGAAG,-0.0957 ± 0.051
20,GCCTGATA,-0.158 ± 0.022
21,GTACCTCA,0.132 ± 0.0091
22,CTAGGCAC,0.0756 ± 0.0076
23,GACCTTAC,-0.313 ± 0.028
24,CGTGAATA,0.296 ± 0.038
25,CCCTATAC,-0.277 ± 0.0063

row,Sequence,PBM E-score of 8-mer
1,CCCGGTGC,-0.0156 ± 0.011
2,ACCCCAAG,-0.0413 ± 0.013
3,ATCGGACA,0.057 ± 0.047
4,CGGAAGCA,-0.257 ± 0.062
5,ATTGGCGG,0.036 ± 0.0086
6,GCGGCTGA,-0.0367 ± 0.014
7,TCCGCAAA,0.0333 ± 0.071
8,CGGATTAG,-0.0405 ± 0.062
9,AAGATCTA,0.0852 ± 0.0097
10,AACGTCCA,-0.285 ± 0.059
11,GTTATAGA,-0.111 ± 0.052
12,AAAAAATG,-0.186 ± 0.043
13,CGGCGGTA,-0.196 ± 0.014
14,GGGAAGGA,-0.207 ± 0.0023
15,CCAACGGC,-0.019 ± 0.021
16,ATCTAACA,0.243 ± 0.0094
17,ATGGAGCG,-0.0956 ± 0.049
18,TAGTTCAA,-0.0424 ± 0.031
19,CCTATACG,0.06 ± 0.029
20,AGTGGTCG,-0.0805 ± 0.033
21,GGAGTCCC,-0.118 ± 0.05
22,AACTCACG,0.106 ± 0.047
23,TAGTGAGA,0.278 ± 0.022
24,GGGGCCGA,0.0233 ± 0.033
25,CTGTGGCA,0.0868 ± 0.03

row,Sequence,PBM E-score of 8-mer
1,TAGATCCA,-0.353 ± 0.058
2,AAGGTACT,-0.197 ± 0.047
3,ACTATCAC,0.335 ± 0.04
4,CGTGATTC,0.0514 ± 0.0056
5,ACGGGGGC,0.031 ± 0.014
6,TCGCCACA,0.289 ± 0.0067
7,CATAGTAA,-0.229 ± 0.079
8,CCTTTGAA,-0.144 ± 0.025
9,ACTCCCCT,-0.213 ± 0.088
10,CGCCACAA,0.00315 ± 0.034
11,GATCCTAC,-0.232 ± 0.0069
12,CAAAGTGC,0.249 ± 0.0043
13,AGGTGTAA,0.47639 ± 0.00041
14,ATCTCTGG,-0.134 ± 0.017
15,CGCTGGTC,0.107 ± 0.032
16,TGGTGACA,0.409 ± 0.01
17,CCAGACAG,0.00077 ± 0.00041
18,ATCGCGAT,0.38 ± 0.014
19,ATCTGGCG,0.122 ± 0.068
20,ACTCGTAA,-0.0576 ± 0.11
21,CCTGTTAG,0.271 ± 0.014
22,CCAACAGC,0.197 ± 0.048
